Measurements as given in PubChem BioAssay AID1345082 (National Center for Advancing Translational Sciences (NCATS), 2018).
“And” between values parts separate entries of the source, which are not always exact repeats. Identical values can stand only once. Hit rate of the full screen: of about 94,000 compounds, about 4,000 (4.3%) were called active. Inconclusive means that the source gave no clear call. Such entries were picked first, then a sample of the others. Calls follow the shape of the dose curve; as a rule, active = well fitted inhibition curve with a large enough effect; inconclusive = small, poorly fitted or top-dose-only effect; inactive = no such curve, though single readings can be large or run the other way. Potencies of inconclusive entries are doubtful fits and often do not repeat.

Test: Cytotoxic Profiling in NIH 3T3 Cell Line of Diverse Libraries Using Quantitative High-Throughput Screening; also: nearly all actives have a fitted effect of over 55% in size
Details: NIH 3T3 viability, CellTiter-Glo ATP luminescence, 48-72 h; activity change, negative = cytotoxicity: at 96.7 µM (top of the series) unless noted; series mostly up to 96.7 µM
Summary of the method: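 Cells were seeded at 400 per well, treated with pin-transferred compound, and kept 48 or 72 hr at 37 °C before CellTiter-Glo addition and luminescence imaging of cellular ATP.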
% is scaled to controls: 0 for no effect and ±100 for the full control effect; potency is read from the fitted curve at half-maximal effect; tags tell the direction and shape of the fitted curve.

Question: With `Cc1ccc(S(=O)(=O)NC[C@H]2O[C@@H](CO)[C@@H](O)[C@H]2N2CCN(c3cccc(C(F)(F)F)c3)CC2)cc1` as the compound, how does the Potency read?
Answer: inconclusive: 50.1 µM [inhibitor, partial curve, poor fit]

Question: Which Potency does the source give for `Cc1ccc(C(=O)N2CCC3(CC(c4cccc(C(F)(F)F)c4)=NO3)C2)cc1` (configuration not stated) here?
Answer: inconclusive: 44.7 µM [inhibitor, partial curve, poor fit]

Question: For `O=C(c1ccccc1Cl)N1CCCC(C(=O)N2CCCC(c3nc4ncccc4[nH]3)C2)C1` (configuration not stated), which “activity change, negative = cytotoxicity” value is on record?
Answer: inactive: -12%

Question: For `Cc1ccc(S(=O)(=O)N2CCCC(CCC(=O)O)C2)cc1` (configuration not stated), which Potency is on record?
Answer: inconclusive: 50.1 µM [inhibitor, partial curve, poor fit]

Question: With `CC1(C(=O)N2CCC(c3ccccc3)CC2)CCc2cnc(N3CCOCC3)nc21` (configuration not stated) as the compound, how does the Potency read?
Answer: inconclusive: 17.8 µM [inhibitor, full curve, poor fit]

Question: Which Potency does the source give for `CN1CCN(c2cc(=O)c3ccnc(Nc4ccccn4)c3o2)CC1` here?
Answer: inconclusive: 56.2 µM [inhibitor, partial curve, poor fit]

Question: Which “activity change, negative = cytotoxicity” value does the source give for `CCC(C)NC(=O)C1CCCN1Cc1ccc(-c2cncnc2)cc1` (configuration not stated) here?
Answer: inactive: -25.5%

Question: For `CCN1CCN(C(=O)CC2CCCN(c3cnn(CCOC)c(=O)c3)C2)CC1` (configuration not stated), which “activity change, negative = cytotoxicity” value is on record?
Answer: inactive: -3.33%

Question: With `CC(C)c1nnc(C2CN(C(=O)c3ccc(OC(F)(F)F)cc3)CC23CCOCC3)o1` (configuration not stated) as the compound, how does the “activity change, negative = cytotoxicity” value read?
Answer: inactive: -20.9%

Question: Which Potency does the source give for `CCOC(=O)CN1C(=O)CN(S(C)(=O)=O)CCC(OC)c2ccccc21` (configuration not stated) here?
Answer: inconclusive: 56.2 µM [inhibitor, partial curve, poor fit]

Question: With `Cc1c(C(=O)N(C)Cc2cc(-c3ccccc3)no2)oc2c(F)cccc12` as the compound, how does the Potency read?
Answer: inconclusive: 56.2 µM [inhibitor, partial curve, poor fit]

Question: With `Cn1ncc2c(C(=O)NCCc3ccc(Cl)cc3)cc(C(C)(C)C)nc21` as the compound, how does the Potency read?
Answer: inconclusive: 50.1 µM [inhibitor, partial curve, poor fit] and inconclusive: 56.2 µM [inhibitor, partial curve, poor fit]

Question: Which “activity change, negative = cytotoxicity” value does the source give for `COc1ccc(CN2CC3(CCN(C(=O)CCc4ccccc4)CC3)C2=O)cc1` here?
Answer: inactive: -22.9%

Question: For `O=C(NC1CCCC1)C1CCCN1Cc1ccc(-c2cncnc2)cc1` (configuration not stated), which Potency is on record?
Answer: inconclusive: 35.5 µM [inhibitor, full curve]

Question: For `COc1cccc(CNC[C@H]2O[C@H](Cc3cc(CN4CCOCC4)on3)CC[C@@H]2O)c1`, which “activity change, negative = cytotoxicity” value is on record?
Answer: inactive: 0.16% [at 174 µM]

Question: Which “activity change, negative = cytotoxicity” value does the source give for `c1cn(-c2ccc(Oc3nn[nH]n3)cc2)c(-c2cc3n(n2)CCCNC3)n1` here?
Answer: inactive: -2.24%

Question: For `COCCn1c(C)nnc1-c1cc(-c2cccc(O)c2)ccn1`, which Potency is on record?
Answer: inconclusive: 56.2 µM [inhibitor, partial curve, poor fit]

Question: Which Potency does the source give for `COCCCNC(=O)c1cc(C(C)(C)C)nc2c1cnn2C` here?
Answer: inconclusive: 70.8 µM [inhibitor, partial curve, poor fit]

Question: For `O=C([C@@H]1C[C@H](F)CN1C(=O)Cc1cccs1)N1CCc2ccccc2C1`, which “activity change, negative = cytotoxicity” value is on record?
Answer: inactive: -7.31%

Question: For `COc1cccc(NC(=O)CC2CCCN(c3cnn(CC4CC4)c(=O)c3)C2)c1` (configuration not stated), which Potency is on record?
Answer: inconclusive: 44.7 µM [inhibitor, partial curve, poor fit]

Question: Which Potency does the source give for `O=C(Nc1cc(-c2cccnc2)nn1-c1ccccc1)c1ccc(Cl)cc1` here?
Answer: inconclusive: 50.1 µM [inhibitor, single point]

Question: For `C[S+](=O)([O-])c1ccc(-c2cc(C(=O)NCC(F)(F)F)nn3cccc23)cc1`, which Potency is on record?
Answer: inconclusive: 50.1 µM [inhibitor, partial curve, poor fit]

Question: For `COc1ccccc1NC(=O)Nc1cccc(-c2nnc3n2CCCC3)c1`, which Potency is on record?
Answer: inconclusive: 44.7 µM [inhibitor, partial curve, poor fit]

Question: Which Potency does the source give for `O=C(NCc1ccc(F)cc1)c1ccc2nnc(-c3ccc(F)cc3)n2c1` here?
Answer: inconclusive: 39.8 µM [inhibitor, partial curve, poor fit]

Question: For `O=C(C1CCC1)N1CCC2(CC1)CC(Cc1nc(C3CC3)no1)CCO2` (configuration not stated), which Potency is on record?
Answer: inconclusive: 39.8 µM [inhibitor, partial curve]

Question: Which Potency does the source give for `COc1cccc(-c2c(C(=O)NCc3ccc(F)cc3)nc3sccn23)c1` here?
Answer: inconclusive: 44.7 µM [inhibitor, partial curve, poor fit]

Question: Which “activity change, negative = cytotoxicity” value does the source give for `COc1cccc(C(=O)N2CCC(C(=O)N3CCC(c4nc5ncccc5[nH]4)C3)CC2)c1` (configuration not stated) here?
Answer: inactive: -27.2%

Question: For `O=c1[nH]nc2n1CCC(NS(=O)(=O)c1ccc3c(c1)CCCC3)CC2` (configuration not stated), which Potency is on record?
Answer: inconclusive: 39.8 µM [inhibitor, partial curve]

Question: For `c1ccc2c(c1)COC1(CCN(CC3CC3)C1)CN2CC1CC1` (configuration not stated), which Potency is on record?
Answer: inconclusive: 31.6 µM [inhibitor, partial curve, poor fit]

Question: Which Potency does the source give for `COC(=O)C1=C(C)N(Cc2ccccc2F)C(=O)CC1c1ccccc1Cl` (configuration not stated) here?
Answer: inconclusive: 50.1 µM [inhibitor, partial curve, poor fit]

Question: With `Cc1ccc(C(=O)N2CCc3sc(C(=O)NC(C)c4ccccc4)cc3C2)cc1` (configuration not stated) as the compound, how does the Potency read?
Answer: inconclusive: 39.8 µM [inhibitor, partial curve, poor fit]

Question: With `CCCNC(=O)[C@@H]1Cc2cn(Cc3c(C)noc3C)c3cccc(c23)[C@H](CC(C)C)N1` as the compound, how does the Potency read?
Answer: active: 70.8 µM

Question: For `COc1cccc(-c2cccc(C(=O)N3CCCC3C(=O)NCc3ccccc3Cl)c2)c1` (configuration not stated), which Potency is on record?
Answer: inconclusive: 56.2 µM [inhibitor, partial curve, poor fit]

Question: For `COc1ccc(CC(=O)Nc2cc(-c3cccnc3)nn2-c2ccccc2)cc1`, which “activity change, negative = cytotoxicity” value is on record?
Answer: inactive: -35.3%

Question: With `CCOc1ccc(NC(=O)Cn2c(-c3ccc(F)cc3)nc(C)cc2=O)cc1` as the compound, how does the Potency read?
Answer: inconclusive: 50.1 µM [inhibitor, partial curve, poor fit]

Question: With `Cc1ccc(CCN2CCCC3(Cc4ccccc4CN([S+](C)(=O)[O-])C3)C2)cc1` (configuration not stated) as the compound, how does the “activity change, negative = cytotoxicity” value read?
Answer: inactive: -18%

Question: Which Potency does the source give for `OC1(CN2CCCCC2)CCN(Cc2ccc(F)c(Cl)c2)C1` (configuration not stated) here?
Answer: inconclusive: 56.2 µM [inhibitor, partial curve, poor fit]

Question: Which Potency does the source give for `O=C(NCc1ccccc1)C1CCN(Cc2ccccc2-c2ccccc2F)CC1` here?
Answer: inconclusive: 22.4 µM [inhibitor, full curve]

Question: With `CN1CCN(c2ccc(-c3cccc(N)c3)nn2)CC1` as the compound, how does the “outcome” value read?
Answer: inactive

Question: With `Cc1nn(-c2ccccc2)c2c1C(C1CC1)N(C1CCN(C(=O)c3cccc(C(F)(F)F)c3)C1)C2=O` (configuration not stated) as the compound, how does the “activity change, negative = cytotoxicity” value read?
Answer: inactive: -26.6%

Question: With `O=c1[nH]c(C2CCCN(Cc3ccccc3C(F)(F)F)C2)nn1-c1ccc(Cl)cc1` (configuration not stated) as the compound, how does the Potency read?
Answer: inconclusive: 50.1 µM [inhibitor, partial curve, poor fit]

Question: With `COc1cccc(CC(=O)N2CCCn3nc(C)c(-c4ccccc4OCc4ccccc4)c32)c1` as the compound, how does the Potency read?
Answer: inconclusive: 35.5 µM [inhibitor, partial curve, poor fit]

Question: Which “activity change, negative = cytotoxicity” value does the source give for `O=C(O)c1ccc(-c2cnccn2)cc1` here?
Answer: inactive: 4.79% [at 174 µM]

Question: For `CCN1CCN(C(=O)c2ccc3nc(-c4cccnc4Cl)oc3c2)CC1`, which “activity change, negative = cytotoxicity” value is on record?
Answer: inactive: 0.0591%

Question: With `COc1ccc(C(=O)NC2CCN(c3cc(-c4cccs4)[nH]n3)CC2)c(C)c1` as the compound, how does the Potency read?
Answer: inconclusive: 44.7 µM [inhibitor, partial curve, poor fit]

Question: For `Cc1noc(C)c1-c1cc(-c2cncnc2)cn2cncc12`, which Potency is on record?
Answer: inconclusive: 39.8 µM [inhibitor, full curve, poor fit]

Question: For `COc1cccc(-c2cc(C(=O)NC(C)C)c3cnn(C)c3n2)c1`, which Potency is on record?
Answer: inconclusive: 89.1 µM [inhibitor, partial curve, poor fit]

Question: For `O=C(NCc1ccc(F)cc1)C1CCCN(Cc2cccc(-c3ccc(F)cc3F)c2)C1` (configuration not stated), which Potency is on record?
Answer: active: 44.7 µM

Question: For `COCCc1nncn1C1CCN(C(=O)c2ccc(F)c(Cl)c2)CC1`, which Potency is on record?
Answer: inconclusive: 70.8 µM [inhibitor, single point]

Question: With `Cc1ccc(-n2c(C3CCN(C(=O)c4ccccc4)CC3)n[nH]c2=O)cc1` as the compound, how does the Potency read?
Answer: inconclusive: 44.7 µM [inhibitor, partial curve, poor fit]

Question: For `C=CCNC(=O)c1coc(COc2ccc3ccc(OC)cc3c2)n1`, which Potency is on record?
Answer: inconclusive: 31.6 µM [inhibitor, partial curve, poor fit]

Question: Which “activity change, negative = cytotoxicity” value does the source give for `CCOc1ccc(C(=O)N[C@@H]2CN(C)C[C@H]2CN(C)C)cc1OCC` here?
Answer: inactive: -15.4%

Question: With `O=C(N[C@@H]1CCNC[C@H]1O)c1cccc(-c2ccc(OC(F)(F)F)cc2)c1` as the compound, how does the Potency read?
Answer: active: 17.8 µM

Question: With `CC1=C[C@@H](CO)[C@H](C(C)C)C[C@H]1CC(=O)NCc1ccc(C#N)cc1` as the compound, how does the “activity change, negative = cytotoxicity” value read?
Answer: inactive: -28.5% [at 138 µM]

Question: With `O=C(c1ccc(F)c(F)c1)N1CCCC(c2noc(COc3ccccc3F)n2)C1` (configuration not stated) as the compound, how does the Potency read?
Answer: inconclusive: 44.7 µM [inhibitor, partial curve, poor fit]

Question: Which “activity change, negative = cytotoxicity” value does the source give for `COc1cccc(N2CCN(C(=O)c3ccc(N4CC5CC(C4)[C@H]4CCCC(=O)N4C5)nc3)CC2)c1` (some centres not stated) here?
Answer: inactive: -20.5%

Question: With `C[C@]1(CO)[C@H]2Cc3sc(-c4ccsc4)nc3[C@@H](CC(=O)Nc3cccc(O)c3)[C@]2(C)CC[C@H]1O` as the compound, how does the Potency read?
Answer: inconclusive: 44.7 µM [inhibitor, partial curve, poor fit]

Question: With `COc1ccc(C(=O)N2CCCCC2c2nc(CCOc3cccc(C)c3)no2)cn1` (configuration not stated) as the compound, how does the Potency read?
Answer: inconclusive: 35.5 µM [inhibitor, partial curve]

Question: For `CCN1CCC2(Cc3ccccc3CN(C(=O)c3cccc(Cl)c3)C2)C1` (configuration not stated), which “activity change, negative = cytotoxicity” value is on record?
Answer: inactive: -8.91%

Question: For `O=C(N[C@H]1CO[C@H]2[C@@H]1OC[C@@H]2Nc1nccc(-c2ccc(-c3ccccc3)cc2)n1)C1CCCCC1`, which Potency is on record?
Answer: inconclusive: 79.4 µM [inhibitor, partial curve]

Question: With `COCC1CCN(S(=O)(=O)N2CCCCC2CCc2ccccc2)CC1` (configuration not stated) as the compound, how does the Potency read?
Answer: inconclusive: 50.1 µM [inhibitor, partial curve, poor fit]

Question: With `COc1ccccc1-c1ccc(C(=O)N2CCC(NC(=O)C3CCCC3)CC2)cc1` as the compound, how does the Potency read?
Answer: inconclusive: 44.7 µM [inhibitor, partial curve, poor fit]
